Laboratory results published in PubChem BioAssay AID624417 (National Center for Advancing Translational Sciences (NCATS), 2012).
Several values for one entry are separate records, joined by “and”; a condition that tells them apart may be missing. Equal entries are not always repeated. Out of some 410,000 compounds screened, about 6,400 (1.6%) were called active. This list was built around the results that the source calls inconclusive (neither active nor inactive); the mix of calls is not that of the screen. Calls follow the shape of the dose curve; as a rule, active = well fitted inhibition curve with a large enough effect; inconclusive = small, poorly fitted or top-dose-only effect; inactive = no such curve, though single readings can be large or run the other way. Potencies beside an inconclusive call are fits to weak or partial responses and may not hold up.

molecular target: Glucagon-like peptide 1 receptor (Homo sapiens) (UniProt P43220); assay: qHTS of GLP-1 Receptor Inverse Agonists (Inhibition Mode); details: HEK293 GLP-1R CRE-luciferase, luminescence, 24 h, GLP-1R form is constitutively active; activity change, negative = inhibition: at 38.3 µM (top of the series) unless noted; also: nearly all actives have a fitted effect of over 55% in size
Sequence of UniProt P43220 (P43220 whole entry, looked up): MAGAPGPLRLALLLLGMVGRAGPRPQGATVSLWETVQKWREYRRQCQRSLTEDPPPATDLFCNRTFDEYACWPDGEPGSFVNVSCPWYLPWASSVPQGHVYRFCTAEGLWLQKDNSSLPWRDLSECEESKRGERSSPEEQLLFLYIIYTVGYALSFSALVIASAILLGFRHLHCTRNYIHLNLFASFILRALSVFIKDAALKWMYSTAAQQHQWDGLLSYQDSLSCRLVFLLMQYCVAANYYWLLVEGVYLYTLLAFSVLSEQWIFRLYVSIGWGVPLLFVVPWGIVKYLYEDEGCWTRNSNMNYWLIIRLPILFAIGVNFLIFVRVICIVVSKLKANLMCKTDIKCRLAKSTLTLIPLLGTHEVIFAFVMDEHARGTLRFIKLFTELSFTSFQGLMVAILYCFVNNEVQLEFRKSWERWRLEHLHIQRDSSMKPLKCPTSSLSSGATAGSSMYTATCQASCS
Summary of the method: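 Stable HEK293 clone (constitutively active GLP-1R + cAMP-response luciferase); 200 cells/uL plated, 12 h pre-culture, compound 24 hr, 37 deg C/5% CO2; detection reagent 12 min RT; luminescence.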
% is scaled to controls: 0 for no effect and ±100 for the full control effect; potency is read from the fitted curve at half-maximal effect; tags tell the direction and shape of the fitted curve.

Row | SMILES | Potency | activity change, negative = inhibition
1 | CCOC(=O)c1sc(NC(=O)Nc2ccc(Cl)cc2)cc1C | inconclusive: 0.316 µM [inhibitor, full curve, poor fit] | 
2 | CCc1c(C(=O)N/N=C/c2ccco2)nnn1-c1nonc1N |  | inactive: 12.3%
3 | COc1ccc(OCCCn2c(C)nc3cc(C)c(C)cc32)cc1 | inconclusive: 12.6 µM [inhibitor, single point] | 
4 | Cc1oc(-c2ccccc2F)nc1CS(=O)(=O)CC(=O)NCCCN1CC(C)CC(C)C1 (stereo not given) | inconclusive: 28.2 µM [inhibitor, single point] | 
5 | CCC1=C(c2ccc(C)cc2)S(=O)(=O)N=C1N1CCC(C(=O)NCCc2cccc(OC)c2)CC1 |  | inactive: -8.64%
6 | CCOC(=O)c1c(NC(=O)C2C3C=CC(CC3)C2C(=O)O)sc(C)c1CC (stereo not given) | inconclusive: 31.6 µM [inhibitor, partial curve, poor fit] | 
7 | CC1CCCCN1CCNC(=O)C1CC(=O)N(c2ccc(F)c(Cl)c2)C1 (stereo not given) | inconclusive: 7.94 µM [inhibitor, partial curve, poor fit] | 
8 | COc1ccc(/C(O)=C/c2nc3ccc(C(=O)NCCc4cccc(C)c4)cc3[nH]c2=O)cc1OC | inconclusive: 11.2 µM [inhibitor, partial curve, poor fit] | 
9 | CN1C[C@@H]2C(c3ccc(Cl)nc3)C3(c4ccc(C#N)cc4)CC2(C3)[C@H]1c1ccccc1 (stereo not given in full) | inconclusive: 20 µM [inhibitor, single point] | 
10 | CCCCNc1nc2c(-c3cccc(Br)c3)nnn2c2ccccc12 |  | inactive: -4.07%
11 | COc1ccc(Cl)cc1-c1cc(C(=O)NCC2CCCCC2)[nH]n1 | inconclusive: 28.2 µM [inhibitor, single point] | 
12 | O=C(OCC(=O)N1CCCc2ccccc21)c1ccccc1NCCO | inconclusive: 28.2 µM [inhibitor, single point] | 
13 | Cc1sc(NC(=O)c2ccco2)c(CN2CCN(c3ccccc3)CC2)c1C |  | inactive: 0%
14 | O=C(Nc1cccc(S(=O)(=O)N2CCCCC2)c1)[C@@H]1CCCN1S(=O)(=O)c1ccccc1C(F)(F)F | inconclusive: 10 µM [inhibitor, partial curve, poor fit] | 
15 | Cc1cn2c(=O)cc(COC(=O)c3ccc(NC(=O)c4ccc(C(C)(C)C)cc4)cc3)nc2s1 |  | inactive: 7.3%
16 | Cn1c(=O)c2c(-c3ccccc3)n(-c3ccccc3O)cc2n(C)c1=O |  | inactive: 7.27%
17 | CCOC(=O)C1CCN(Cc2ccc(C(=O)OC)cc2)CC1 |  | inactive: 2.86%
18 | O=c1[nH]c(CCl)nc2cc(-c3ccc(F)cc3)sc12 | inconclusive: 12.6 µM [inhibitor, single point] | 
19 | Nc1c(C(=O)Nc2cccc(C(=O)O)c2)sc2nc3c(cc12)CCCC3 | inconclusive: 3.55 µM [inhibitor, full curve, poor fit] | 
20 | Fc1ccc(/C=N/NC(=S)Nc2cccnc2)cc1 | inconclusive: 7.94 µM [inhibitor, partial curve, poor fit] | 

Row | SMILES | Potency | activity change, negative = inhibition
21 | O=C(COC(=O)c1ccc(NS(=O)(=O)c2cccs2)cc1O)Nc1nc2ccccc2s1 | inconclusive: 11.2 µM [inhibitor, partial curve, poor fit] | 
22 | CN(C)c1ccc(CNC(=O)C2CCN(C(=O)c3ccc(-n4ccc5ccccc54)s3)CC2)cc1 | inconclusive: 20 µM [inhibitor, single point] | 
23 | COC(=O)c1ccc(OCC(O)CN2CCc3cc(OC)c(OC)cc3C2c2ccccc2)cc1 (stereo not given) | inconclusive: 11.2 µM [inhibitor, partial curve, poor fit] | 
24 | Cc1ccc(C2C(=O)N(C3CCCCCC3)CC(=O)N2CCC2=CCCCC2)cc1 (stereo not given) |  | inactive: -5.2%
25 | COc1cc([N+](=O)[O-])ccc1NC(=O)N1CCC2(CC1)Nc1cc(F)ccc1-n1cccc12 | active: 11.2 µM | 
26 | CC1CCN(c2nc3c(S(=O)(=O)c4cccc(Cl)c4)nnn3c3ccsc23)CC1 |  | inactive: 9.97%
27 | COCCN(Cc1ccccc1)C(=O)c1cccc(S(=O)(=O)N2CCN(c3ccc(F)cc3)CC2)c1 | inconclusive: 12.6 µM [inhibitor, single point] | 
28 | Cc1ccccc1Nc1nnc(-c2ccc(C)c(S(=O)(=O)NCC3CCCO3)c2)c2ccccc12 (stereo not given) |  | inactive: -29.6%
29 | CCCc1[nH]n(-c2nc3ccccc3s2)c(=O)c1C=NCC(C)C | inconclusive: 28.2 µM [inhibitor, single point] | 
30 | O=C1Nc2cc(C(=O)NCC3CCCO3)ccc2S/C1=C/c1ccccc1F (stereo not given) | inconclusive: 8.91 µM [inhibitor, partial curve, poor fit] | 
31 | COc1ccc(-c2coc3c(C(=O)NCc4ccc(F)c(F)c4)cccc23)c(C)c1 | inconclusive: 10 µM [inhibitor, partial curve, poor fit] | 
32 | COc1ccc(C2(c3ccc(OC)cc3)NC(=O)N(CC(=O)Nc3ccccc3C)C2=O)cc1 | inconclusive: 28.2 µM [inhibitor, single point] | 
33 | CN(C(=O)COC(=O)C1CCN(S(=O)(=O)c2c(Cl)cccc2Cl)CC1)C1CCCCC1 | inconclusive: 28.2 µM [inhibitor, single point] | 
34 | O=C(c1ccccc1)c1ccc(OCC(O)CN2CCCCC2)cc1 (stereo not given) | inconclusive: 10 µM [inhibitor, partial curve, poor fit] | 
35 | CN(C)c1ccc(N=Nc2ccccc2C(=O)OCC(=O)Nc2ccccc2C(F)(F)F)cc1 | inconclusive: 28.2 µM [inhibitor, single point] | 
36 | COCc1nnc(NC(=O)COc2ccc3c(c2)OCO3)s1 |  | inactive: -9.53%
37 | Cc1ccc(C(=O)CCC(=O)Nc2cccc(C(F)(F)F)c2)cc1C | inconclusive: 15.8 µM [inhibitor, single point] | 
38 | Cc1nc2sccn2c(=O)c1S(=O)(=O)Nc1cccc(Cl)c1C | inconclusive: 11.2 µM [inhibitor, single point] and inconclusive: 31.6 µM [inhibitor, single point] | 
39 | O=C(Nc1ccc(Cl)cc1)Nc1cccc2nsnc12 | inconclusive: 11.2 µM [inhibitor, single point] | 
40 | C=CCN1C(=S)CC(c2ccccc2)=Nc2ccccc21 | inconclusive: 10 µM [inhibitor, partial curve, poor fit] | 
